# Experimental data as given in the supplement of paper PMC3334620.
# The full ranking holds about 33,000 sequences; the median of “E-score (-0.5 to 0.5)” is about -0.012, and the highest 2% start at about 0.29. The list shows a part of the results.
# Target: T1, Ybr033w (UniProt P38073)
# T1 sequence: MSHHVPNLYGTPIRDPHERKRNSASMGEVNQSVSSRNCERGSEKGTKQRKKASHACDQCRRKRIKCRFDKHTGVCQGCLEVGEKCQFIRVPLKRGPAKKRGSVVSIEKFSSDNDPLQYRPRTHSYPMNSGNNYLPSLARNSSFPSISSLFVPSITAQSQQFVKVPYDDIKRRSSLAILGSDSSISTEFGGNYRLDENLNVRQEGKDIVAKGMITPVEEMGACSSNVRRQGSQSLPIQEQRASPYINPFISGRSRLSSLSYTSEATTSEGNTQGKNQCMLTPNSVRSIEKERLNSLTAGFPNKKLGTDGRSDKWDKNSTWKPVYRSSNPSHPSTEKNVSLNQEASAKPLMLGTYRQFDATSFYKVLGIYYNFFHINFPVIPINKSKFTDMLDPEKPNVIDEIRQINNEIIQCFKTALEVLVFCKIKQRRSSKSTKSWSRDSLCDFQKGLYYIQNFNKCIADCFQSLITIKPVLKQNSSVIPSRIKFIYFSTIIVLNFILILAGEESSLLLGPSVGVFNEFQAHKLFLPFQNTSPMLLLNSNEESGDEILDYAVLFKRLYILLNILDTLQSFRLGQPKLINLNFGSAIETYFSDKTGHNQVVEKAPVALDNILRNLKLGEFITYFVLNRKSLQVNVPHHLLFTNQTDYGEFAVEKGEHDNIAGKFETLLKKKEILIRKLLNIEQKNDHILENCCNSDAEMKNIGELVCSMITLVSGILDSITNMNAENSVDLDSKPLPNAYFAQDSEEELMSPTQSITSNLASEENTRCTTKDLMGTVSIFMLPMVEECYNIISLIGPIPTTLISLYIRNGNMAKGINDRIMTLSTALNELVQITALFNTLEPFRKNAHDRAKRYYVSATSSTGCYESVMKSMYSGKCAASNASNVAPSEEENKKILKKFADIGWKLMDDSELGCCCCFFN
# Experiment: PBM E-score (8-mer binding enrichment) (E-score (-0.5 to 0.5)); higher = stronger / more preferred TF binding; most listed sequences are background and not binding sites
# Details: protein concentration: 200 nM; construct: GST-full length
# Outline: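 The E-score, a modified Wilcoxon-Mann-Whitney statistic, was computed by the Universal PBM Analysis Suite for every ungapped eight-base word pooled with its reverse complement. Scans behind it were normalised with masliner after bound GST-tagged yeast transcription factors were detected with fluorescent anti-GST. The proteins, at about 100-200 nM, had been applied to universal all-10-mer Agilent arrays made double-stranded by primer extension.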
row,Sequence,PBM E-score
1,ACTAACCC,0.0277
2,GACGGAGA,-0.00157
3,TCGTGTAA,0.0643
4,AGTCATCG,-0.126
5,AAATTAAT,0.314
6,TGACGCCA,-0.0681
7,CATATGGA,-0.0514
8,CCTACACC,-0.0241
9,GCCTTAGA,-0.136
10,GAGCCGAC,-0.372
11,CGCCTATA,-0.149
12,ATTCATAG,0.19
13,CCGGAGCA,-0.181
14,ACCGAACA,0.0621
15,CAATTGGC,0.0598
16,GCTTGTAC,0.0199
17,AGCTCTGC,-0.255
18,TGTACAAA,0.205
19,CTGTATAA,0.206
20,AGAGTTAG,0.0746
21,AATGTAGA,0.152
22,AGCTTGCG,-0.11

row,Sequence,PBM E-score
1,GACATAGA,-0.149
2,TACCGCCA,0.0243
3,CGTATGCC,-0.117
4,CTCAAAAG,0.0394
5,TCCATTAA,0.115
6,GCGCCAGA,-0.172
7,TTAGCAAA,0.218
8,GTATCCAC,0.0566
9,AAAGTGCG,0.0605
10,TATCTTGA,0.201
11,CAGCAAAG,0.00381
12,ATTGGCAG,-0.131
13,ACGCTGCC,-0.286
14,AGTCTCTC,-0.134
15,GTCTCGAA,0.00956
16,AAACAATA,0.196
17,ACGTGCAA,-0.197
18,GTTACGAA,0.0496
19,GAAACCAC,-0.0602
20,CAGCCCGC,-0.285
21,CAAACACG,-0.067
22,GACTAGAC,-0.162

row,Sequence,PBM E-score
1,GCCGTTCC,-0.127
2,TGCGCTAA,0.141
3,CAGGGGAC,-0.286
4,CGATGGCG,-0.127
5,AATCCGGT,0.282
6,TATCTGCA,0.00926
7,ACCTCCCG,-0.241
8,AAATTCTT,0.176
9,GGCTCCTA,-0.311
10,TACAAGGA,0.0745
11,CTTCACCC,0.0795
12,GGTGCATA,0.0554
13,CTGTAAGC,-0.109
14,CAAGATCG,-0.0792
15,CTGTGGAA,0.0734
16,CACTGGGC,-0.175
17,GCTAATCC,0.101
18,ATGTAATA,0.275
19,GCGGACCA,-0.0549
20,TTGAGAAA,0.262
21,CAAGAGCC,-0.0471
22,CTTGAACA,0.112

row,Sequence,PBM E-score
1,AAGCCGGA,0.164
2,AACGTCGC,-0.164
3,ACAGCTTG,-0.151
4,CTGCCAGA,-0.111
5,ACTCCACT,0.0138
6,TAATGCGA,0.122
7,CTTTCACC,0.0436
8,AGTACACC,0.1
9,CGCAGCTA,0.0259
10,ATATACCG,0.139
11,CTGCTGGC,-0.345
12,AAATATTT,0.357
13,ACCGTCCG,-0.151
14,CCACTCTA,0.0325
15,GACACTCA,-0.0414
16,AATTTTCA,0.252
17,GGTAACAC,-0.00323
18,GGTCCTGA,-0.192
19,CAGTGGTC,-0.277
20,CCGGTGCG,-0.229
